Results: US20250011379A1 (VERTEX PHARMACEUTICALS, published 2025)
Values belong to the binder of their own block, whether it stands above or below them.

Molecular target: T1, human C4b (human, UniProt P0C0L5 20-1744)
T1 chain 1: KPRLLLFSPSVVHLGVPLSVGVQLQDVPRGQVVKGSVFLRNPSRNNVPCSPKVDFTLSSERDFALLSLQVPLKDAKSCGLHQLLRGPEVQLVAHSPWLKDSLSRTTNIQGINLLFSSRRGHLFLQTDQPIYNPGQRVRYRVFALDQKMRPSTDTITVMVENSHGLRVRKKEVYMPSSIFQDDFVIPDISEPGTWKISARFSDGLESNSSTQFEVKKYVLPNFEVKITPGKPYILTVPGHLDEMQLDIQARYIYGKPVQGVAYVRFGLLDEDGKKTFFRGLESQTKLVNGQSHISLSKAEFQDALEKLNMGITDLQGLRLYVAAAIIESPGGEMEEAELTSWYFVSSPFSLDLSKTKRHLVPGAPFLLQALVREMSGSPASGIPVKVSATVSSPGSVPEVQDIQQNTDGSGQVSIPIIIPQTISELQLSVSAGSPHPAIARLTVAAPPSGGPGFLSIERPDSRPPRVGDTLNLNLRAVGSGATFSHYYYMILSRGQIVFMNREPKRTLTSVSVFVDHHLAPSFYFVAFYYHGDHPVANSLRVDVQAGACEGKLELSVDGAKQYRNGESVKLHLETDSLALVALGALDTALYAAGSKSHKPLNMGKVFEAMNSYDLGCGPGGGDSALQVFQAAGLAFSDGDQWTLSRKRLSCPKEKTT
T1 chain 2: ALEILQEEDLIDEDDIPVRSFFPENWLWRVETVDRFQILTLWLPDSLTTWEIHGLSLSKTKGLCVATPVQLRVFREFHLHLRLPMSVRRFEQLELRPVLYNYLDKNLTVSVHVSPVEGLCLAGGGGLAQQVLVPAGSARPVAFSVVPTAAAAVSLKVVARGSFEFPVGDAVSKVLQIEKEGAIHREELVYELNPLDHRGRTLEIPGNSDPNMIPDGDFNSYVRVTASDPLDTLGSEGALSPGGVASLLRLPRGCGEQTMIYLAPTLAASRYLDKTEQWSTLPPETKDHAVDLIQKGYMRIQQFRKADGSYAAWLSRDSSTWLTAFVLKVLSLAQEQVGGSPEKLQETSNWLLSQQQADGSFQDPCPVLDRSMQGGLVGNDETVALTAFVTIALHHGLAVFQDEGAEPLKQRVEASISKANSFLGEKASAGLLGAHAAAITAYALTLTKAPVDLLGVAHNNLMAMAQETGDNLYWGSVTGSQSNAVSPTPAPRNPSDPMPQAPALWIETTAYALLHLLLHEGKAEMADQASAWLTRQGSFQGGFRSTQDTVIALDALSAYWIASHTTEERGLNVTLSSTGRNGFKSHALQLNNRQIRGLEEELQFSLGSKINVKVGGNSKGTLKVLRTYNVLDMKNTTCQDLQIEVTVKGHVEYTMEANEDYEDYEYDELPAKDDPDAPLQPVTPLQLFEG
T1 chain 3: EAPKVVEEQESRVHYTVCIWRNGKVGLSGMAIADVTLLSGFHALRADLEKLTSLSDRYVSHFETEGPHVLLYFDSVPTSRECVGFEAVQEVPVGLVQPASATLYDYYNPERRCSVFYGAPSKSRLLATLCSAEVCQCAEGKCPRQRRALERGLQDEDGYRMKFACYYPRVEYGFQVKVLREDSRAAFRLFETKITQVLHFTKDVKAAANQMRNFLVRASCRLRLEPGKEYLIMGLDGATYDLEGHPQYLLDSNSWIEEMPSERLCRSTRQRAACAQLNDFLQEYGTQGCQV
Assay: cell-based or functional assay

C4c EC50: 13.8 nM
B1: Const. No. 91: HSA-GGSSGG-hCFI; T377A; E457G; N531G (enzyme)
chain: [not shown - about 600 residues]GGSSGGKVTYTSQEDLVEKKCLAKKYTHLSCDKVFCQPWQRCIEGTCVCKLPYQCPKNGTAVCATNRRSFPTYCQQKSLECLHPGTKFLNNGTCTAEGKFSVSLKHGNTDSEGIVEVKLVDQDKTMFICKSSWSMREANVACLDLGFQQGADTQRRFKLSDLSINSTECLHVHCRGLETSLAECTFTKRRTMGYQDFADVVCYTQKADSPMDDFFQCVNGKYISQMKACDGINDCGDQSDELCCKACQGKGFHCKSGVCIPSQYQCNGEVDCITGEDEVGCAGFASVTQEETEILTADMDAERRRIKSLLPKLSCGVKNRMHIRRKRIVGGKRAQLGDLPWQVAIKDASGITCGGIYIGGCWILTAAHCLRASKTHRYQIWTAVVDWIHPDLKRIVIEYVDRIIFHENYNAGTYQNDIALIEMKKDGNKKDCELPRSIPACVPWSPYLFQPNDTCIVSGWGRGKDNERVFSLQWGEVKLISNCSKFYGNRFYEKEMECAGTYDGSIDACKGDSGGPLVCMDANNVTYVWGVVSWGEGCGKPEFPGVYTKVANYFDWISYHVGRPFISQYNV

C4c EC50: 292 nM
B2: Const. No. 95: HSA linked with CFI (CFI-HSA), wild type (enzyme)
chain: [not shown - about 600 residues]GGSSGGKVTYTSQEDLVEKKCLAKKYTHLSCDKVFCQPWQRCIEGTCVCKLPYQCPKNGTAVCATNRRSFPTYCQQKSLECLHPGTKFLNNGTCTAEGKFSVSLKHGNTDSEGIVEVKLVDQDKTMFICKSSWSMREANVACLDLGFQQGADTQRRFKLSDLSINSTECLHVHCRGLETSLAECTFTKRRTMGYQDFADVVCYTQKADSPMDDFFQCVNGKYISQMKACDGINDCGDQSDELCCKACQGKGFHCKSGVCIPSQYQCNGEVDCITGEDEVGCAGFASVTQEETEILTADMDAERRRIKSLLPKLSCGVKNRMHIRRKRIVGGKRAQLGDLPWQVAIKDASGITCGGIYIGGCWILTAAHCLRASKTHRYQIWTTVVDWIHPDLKRIVIEYVDRIIFHENYNAGTYQNDIALIEMKKDGNKKDCELPRSIPACVPWSPYLFQPNDTCIVSGWGREKDNERVFSLQWGEVKLISNCSKFYGNRFYEKEMECAGTYDGSIDACKGDSGGPLVCMDANNVTYVWGVVSWGENCGKPEFPGVYTKVANYFDWISYHVGRPFISQYNV
